This is an account of results in the antibiotic and cytotoxicity screens of Wong et al. (2023).

This is one part of the list.

The subject of the test is HepG2. In words: cytotoxicity call (relative viability < 0.9). To be noted: 10 µM.
With `C[C@@H]1CCCCO[C@H](CN(C)C(=O)Nc2ccc(F)cc2)[C@@H](C)CN([C@H](C)CO)C(=O)c2cc(NC(=O)Nc3ccc(C(F)(F)F)cc3)ccc2O1`, the cytotoxicity call is “inactive”.
The entry for `COc1ccc(S(=O)(=O)N(C)C[C@@H]2Oc3ccc(NS(=O)(=O)c4c(C)noc4C)cc3C(=O)N([C@H](C)CO)C[C@H]2C)cc1` is “inactive”.
For the molecule `C[C@@H]1CN([C@@H](C)CO)C(=O)c2cc(NS(=O)(=O)c3ccccc3)ccc2O[C@@H](C)CCCCO[C@@H]1CN(C)Cc1ccc(C(F)(F)F)cc1`, the cytotoxicity call is “inactive”.
As to `O=C([C@H]1[C@H](CO)[C@H]2Cn3c(cccc3=O)[C@@H]1N2S(=O)(=O)c1ccccc1F)N1CCOCC1`, the cytotoxicity call is “inactive”.
As to `C[C@@H]1CN([C@H](C)CO)C(=O)c2cc(-c3cccc(C(=O)N(C)C)c3)cnc2O[C@@H]1CN(C)S(=O)(=O)c1ccc(F)cc1`, the cytotoxicity call was “inactive”.
Turning to `NCC1CCC(C(=O)O)CC1` (stereo not given), the cytotoxicity call is “inactive”.
Consider `O=C1O[C@H](c2ccccc2)[C@H](c2ccccc2)N2[C@H]1[C@@H](C(=O)O)[C@]1(C(=O)Nc3ccc(Cl)cc31)[C@H]2c1ccc(F)cc1`, for which the cytotoxicity call was “inactive”.
For `C[C@@H]1CN([C@@H](C)CO)C(=O)c2cc(C3=CCCCC3)cnc2O[C@H]1CN(C)C(=O)CN1CCOCC1`, the cytotoxicity call was “inactive”.
As to `C[C@@H]1CCCCO[C@H](CN(C)C(=O)NC2CCCCC2)[C@@H](C)CN([C@H](C)CO)C(=O)c2cc(NC(=O)NC3CCCCC3)ccc2O1`, the cytotoxicity call was “inactive”.
On to `CCS(=O)(=O)Nc1ccc2c(c1)C(=O)N(C)[C@@H]1CC[C@H](CC(=O)NCCOC)O[C@@H]1CO2`, for which the cytotoxicity call is “inactive”.
Turning to `C[C@H](CO)N1C[C@H](C)[C@H](CN(C)S(=O)(=O)c2cn(C)cn2)Oc2ccc(NC(=O)Nc3ccc(F)cc3)cc2CC1=O`, the cytotoxicity call is “inactive”.
For the molecule `C[C@@H]1CCCCO[C@@H](CN(C)C(=O)c2ccccc2)[C@@H](C)CN([C@H](C)CO)C(=O)c2cc(NC(=O)Nc3ccccc3)ccc2O1`, the cytotoxicity call was “inactive”.
The entry for `Cc1noc(C)c1S(=O)(=O)Nc1ccc2c(c1)C(=O)N([C@H](C)CO)C[C@H](C)[C@H](CN(C)C)OCCCC[C@H](C)O2` is “inactive”.
Turning to `C[C@@H]1CCCCO[C@@H](CN(C)CC2CCCCC2)[C@H](C)CN([C@H](C)CO)C(=O)c2cc(NC(=O)Nc3ccccc3)ccc2O1`, the cytotoxicity call was “active”.
The entry for `CC(C)(O)[C@@H]1CC[C@]2(CO)[C@@H](O)CC[C@](C)(O)[C@H]2[C@@H]1O[C@@H]1O[C@H](CO)[C@@H](O)[C@H](O)[C@H]1O` is “inactive”.
Turning to `C[C@@H]1CN([C@H](C)CO)C(=O)Cc2cc(NS(C)(=O)=O)ccc2O[C@@H]1CN(C)C(=O)Nc1ccc(C(F)(F)F)cc1`, the cytotoxicity call is “inactive”.
`Cc1noc(C)c1S(=O)(=O)Nc1ccc2c(c1)C(=O)N([C@@H](C)CO)C[C@@H](C)[C@H](CN(C)S(=O)(=O)c1ccccc1)O2`: the cytotoxicity call is “inactive”.
In the case of `CC(C)C#Cc1cnc2c(c1)C(=O)N([C@@H](C)CO)C[C@@H](C)[C@H](CN(C)C(=O)c1ccc3c(c1)OCO3)O2`, the cytotoxicity call was “inactive”.
For `CO[C@@H]1CN(C)C(=O)c2cc(NC(=O)Nc3ccccc3F)ccc2OC[C@@H](C)N(C(=O)Nc2ccccc2F)C[C@H]1C`, the cytotoxicity call was “inactive”.
On to `O=C1CSC(=S)N1`, for which the cytotoxicity call is “inactive”.
On to `C[C@H](CO)N1C[C@H](C)[C@@H](CN(C)CC2CCCCC2)Oc2ccc(NC(=O)CCN3CCOCC3)cc2CC1=O`, for which the cytotoxicity call is “inactive”.
The entry for `Cc1noc(C)c1S(=O)(=O)Nc1ccc2c(c1)C(=O)N([C@@H](C)CO)C[C@H](C)[C@@H](CN(C)Cc1ccc(C(F)(F)F)cc1)OCCCC[C@H](C)O2` is “inactive”; for `C[C@@H]1CN([C@H](C)CO)C(=O)c2cccc(NC(=O)Nc3ccc(C(F)(F)F)cc3)c2O[C@H]1CN(C)S(=O)(=O)c1ccc(F)cc1` it is “inactive”.
Take `CCN1CCN(C(=O)NC(C(=O)NC2C(=O)N3C(C(=O)O)=C(CSc4nnnn4C)CSC23)c2ccc(O)cc2)C(=O)C1=O` (stereo not given): the cytotoxicity call is “inactive”.
As to `Cc1noc(C)c1NC(=O)Nc1ccc2c(c1)C(=O)N([C@@H](C)CO)C[C@@H](C)[C@H](CN(C)Cc1ccc(Cl)c(Cl)c1)OCCCC[C@@H](C)O2`, the cytotoxicity call is “active”.
For `COc1cccc(NC(=O)C[C@@H]2CC[C@@H]3[C@@H](COc4ccc(NC(=O)C5CCOCC5)cc4C(=O)N3C)O2)c1`, the cytotoxicity call is “inactive”.
In the case of `C[C@@H]1CN([C@@H](C)CO)C(=O)Cc2cc(NC(=O)c3ccncc3)ccc2O[C@H]1CN(C)S(=O)(=O)c1cn(C)cn1`, the cytotoxicity call is “inactive”.
As for `CCCCCN1CC=C[C@@]23O[C@@H]4C=CCOC(=O)[C@@H]4[C@H]2C(=O)N([C@@H](C)CO)[C@@H]3C1=O`, the cytotoxicity call is “inactive”.
Take `COc1ccc(NC(=O)N(C)C[C@H]2OCCCC[C@@H](C)Oc3ccc(NC(=O)Cc4ccccc4)cc3C(=O)N([C@@H](C)CO)C[C@@H]2C)cc1`: the cytotoxicity call is “inactive”.
For `COc1ccccc1CNC(=O)C[C@H]1CC[C@@H]2[C@H](COC[C@@H](O)CN2C(=O)Nc2ccc(F)cc2)O1`, the cytotoxicity call was “inactive”.
The entry for `C[C@@H]1CN([C@@H](C)CO)C(=O)c2cc(NC(=O)Cn3cnnn3)ccc2O[C@@H]1CN(C)Cc1ccncc1` is “inactive”; for `COc1cc(/C=C(\C#N)C(=O)Nc2nnc(C(F)(F)F)s2)ccc1OCc1ccc(C(F)(F)F)cc1C(F)(F)F` it is “inactive”.
Take `COc1ccc(S(=O)(=O)N(C)C[C@@H]2Oc3ccc(NS(=O)(=O)c4ccc(C)cc4)cc3CC(=O)N([C@@H](C)CO)C[C@@H]2C)cc1`: the cytotoxicity call is “inactive”.
Consider `Cc1noc(C)c1NC(=O)Nc1ccc2c(c1)C(=O)N([C@H](C)CO)C[C@H](C)[C@H](CN(C)Cc1ccc(C(=O)Nc3ccccc3N)cc1)O2`, for which the cytotoxicity call was “inactive”.
For `CC(O)Cn1cnc2c1c(=O)n(C)c(=O)n2C` (stereo not given), the cytotoxicity call is “inactive”.
For the molecule `C[C@H](CO)N1C[C@H](C)[C@H](CN(C)S(=O)(=O)c2ccccc2)Oc2ccc(NS(=O)(=O)c3ccccc3)cc2C1=O`, the cytotoxicity call is “inactive”.
Consider `C[C@@H]1CCCCO[C@H](CN(C)Cc2ccc(C(=O)O)cc2)[C@H](C)CN([C@@H](C)CO)C(=O)c2cc(NC(=O)Nc3ccc4c(c3)OCO4)ccc2O1`, for which the cytotoxicity call was “inactive”.
As for `COc1ccc(NC(=O)N(C)C[C@H]2OCCCC[C@H](C)Oc3ccc(NC(=O)Nc4ccc(C(F)(F)F)cc4)cc3C(=O)N([C@@H](C)CO)C[C@@H]2C)cc1`, the cytotoxicity call is “inactive”.
Take `Cl.OC(c1cc(C(F)(F)F)nc2c(C(F)(F)F)cccc12)C1CCCCN1` (stereo not given): the cytotoxicity call is “active”.
Turning to `COc1ccc(CN(C)C[C@@H]2OCCCC[C@H](C)Oc3ccc(NC(=O)Nc4ccccc4)cc3C(=O)N([C@H](C)CO)C[C@@H]2C)cc1`, the cytotoxicity call was “inactive”.
